Experimental data: publication PMC3045339
These are yes or no findings as the source states them, for the method shown. Binding seen in cells or lysates may run through a third protein. Some entries that bind do so weakly or less than the wild type. For some assays here: Sequences can lack the tags named with a protein.

The chains behind the UniProt entries cited, without tags or fusion partners. Residues count along the entry.
UniProt Q00960, residues 27-1482: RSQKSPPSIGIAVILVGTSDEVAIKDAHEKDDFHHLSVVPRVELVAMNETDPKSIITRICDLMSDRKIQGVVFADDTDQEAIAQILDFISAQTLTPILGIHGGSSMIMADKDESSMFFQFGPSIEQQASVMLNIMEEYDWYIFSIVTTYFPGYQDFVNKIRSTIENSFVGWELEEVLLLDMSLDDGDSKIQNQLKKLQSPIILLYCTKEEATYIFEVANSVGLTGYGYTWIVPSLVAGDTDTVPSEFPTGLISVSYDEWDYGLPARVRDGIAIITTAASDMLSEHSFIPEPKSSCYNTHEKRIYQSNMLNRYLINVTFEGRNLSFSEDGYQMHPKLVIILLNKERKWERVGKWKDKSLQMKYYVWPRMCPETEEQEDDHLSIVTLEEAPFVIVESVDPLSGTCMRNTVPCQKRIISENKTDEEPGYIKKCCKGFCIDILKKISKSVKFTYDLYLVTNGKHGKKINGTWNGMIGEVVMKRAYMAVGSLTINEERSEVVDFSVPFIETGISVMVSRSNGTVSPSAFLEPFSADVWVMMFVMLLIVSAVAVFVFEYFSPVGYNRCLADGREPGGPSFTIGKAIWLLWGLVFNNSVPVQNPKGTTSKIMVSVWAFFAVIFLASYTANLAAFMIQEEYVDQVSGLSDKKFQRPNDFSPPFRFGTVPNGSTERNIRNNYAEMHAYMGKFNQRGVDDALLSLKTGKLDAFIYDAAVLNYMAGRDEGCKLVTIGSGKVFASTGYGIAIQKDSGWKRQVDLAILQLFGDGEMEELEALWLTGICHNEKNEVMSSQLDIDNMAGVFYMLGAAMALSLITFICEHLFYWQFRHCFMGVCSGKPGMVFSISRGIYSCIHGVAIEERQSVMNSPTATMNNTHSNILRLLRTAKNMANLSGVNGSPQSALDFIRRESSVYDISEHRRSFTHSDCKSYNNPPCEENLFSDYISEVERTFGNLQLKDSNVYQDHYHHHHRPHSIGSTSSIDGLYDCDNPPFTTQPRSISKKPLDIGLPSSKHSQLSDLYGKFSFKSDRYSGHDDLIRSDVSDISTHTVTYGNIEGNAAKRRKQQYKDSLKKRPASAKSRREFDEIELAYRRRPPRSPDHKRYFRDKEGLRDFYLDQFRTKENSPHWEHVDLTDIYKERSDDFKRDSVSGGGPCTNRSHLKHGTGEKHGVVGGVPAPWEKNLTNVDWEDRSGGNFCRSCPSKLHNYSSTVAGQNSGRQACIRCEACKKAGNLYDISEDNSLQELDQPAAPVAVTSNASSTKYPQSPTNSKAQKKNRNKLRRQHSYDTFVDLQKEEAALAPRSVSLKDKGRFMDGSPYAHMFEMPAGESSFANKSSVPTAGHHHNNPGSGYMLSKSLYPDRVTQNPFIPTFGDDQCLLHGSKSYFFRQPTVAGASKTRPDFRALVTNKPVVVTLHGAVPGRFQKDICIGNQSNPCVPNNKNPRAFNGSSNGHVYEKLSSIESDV
UniProt P19490, residues 19-907: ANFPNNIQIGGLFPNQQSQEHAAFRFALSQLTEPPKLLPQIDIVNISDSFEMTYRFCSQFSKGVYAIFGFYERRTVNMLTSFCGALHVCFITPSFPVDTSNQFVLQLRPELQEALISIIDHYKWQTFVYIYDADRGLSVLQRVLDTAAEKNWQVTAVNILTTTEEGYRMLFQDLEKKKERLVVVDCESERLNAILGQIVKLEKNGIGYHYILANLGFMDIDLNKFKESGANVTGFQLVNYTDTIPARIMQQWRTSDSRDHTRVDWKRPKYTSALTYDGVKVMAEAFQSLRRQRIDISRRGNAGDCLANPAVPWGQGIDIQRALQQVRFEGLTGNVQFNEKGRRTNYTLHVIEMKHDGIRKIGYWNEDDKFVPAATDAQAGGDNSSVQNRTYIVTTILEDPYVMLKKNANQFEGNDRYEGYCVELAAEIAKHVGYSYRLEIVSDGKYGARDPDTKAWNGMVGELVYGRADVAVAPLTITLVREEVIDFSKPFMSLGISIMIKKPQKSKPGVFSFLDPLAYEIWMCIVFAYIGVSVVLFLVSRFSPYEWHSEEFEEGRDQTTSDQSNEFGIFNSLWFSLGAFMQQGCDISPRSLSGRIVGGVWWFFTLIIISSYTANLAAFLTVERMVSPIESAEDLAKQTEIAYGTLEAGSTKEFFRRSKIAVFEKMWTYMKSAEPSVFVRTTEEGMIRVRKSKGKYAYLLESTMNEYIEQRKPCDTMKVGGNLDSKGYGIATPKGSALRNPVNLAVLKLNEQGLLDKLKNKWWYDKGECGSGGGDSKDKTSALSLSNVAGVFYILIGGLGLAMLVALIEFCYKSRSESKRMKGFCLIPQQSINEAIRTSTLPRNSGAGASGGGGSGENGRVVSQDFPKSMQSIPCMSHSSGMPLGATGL
UniProt Q6Y1S1: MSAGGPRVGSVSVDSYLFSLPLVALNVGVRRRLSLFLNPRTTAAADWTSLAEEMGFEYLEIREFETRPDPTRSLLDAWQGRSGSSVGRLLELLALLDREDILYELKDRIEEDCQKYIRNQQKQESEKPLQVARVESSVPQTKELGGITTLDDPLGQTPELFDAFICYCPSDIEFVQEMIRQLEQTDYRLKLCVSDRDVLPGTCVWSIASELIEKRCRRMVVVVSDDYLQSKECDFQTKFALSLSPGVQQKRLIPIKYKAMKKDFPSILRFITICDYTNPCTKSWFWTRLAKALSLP

How the values were obtained:
[1] = target: T1, interleukin-1 receptor type I (rat (endogenous in hippocampus)) (UniProt Q02955); assay: co-IP; protein homogenates (200 ug) from rat hippocampi immunoprecipitated with antibodies specific for IL-1RI, GluA1 or GluN2B; western blot of the immunocomplex
T1 sequence: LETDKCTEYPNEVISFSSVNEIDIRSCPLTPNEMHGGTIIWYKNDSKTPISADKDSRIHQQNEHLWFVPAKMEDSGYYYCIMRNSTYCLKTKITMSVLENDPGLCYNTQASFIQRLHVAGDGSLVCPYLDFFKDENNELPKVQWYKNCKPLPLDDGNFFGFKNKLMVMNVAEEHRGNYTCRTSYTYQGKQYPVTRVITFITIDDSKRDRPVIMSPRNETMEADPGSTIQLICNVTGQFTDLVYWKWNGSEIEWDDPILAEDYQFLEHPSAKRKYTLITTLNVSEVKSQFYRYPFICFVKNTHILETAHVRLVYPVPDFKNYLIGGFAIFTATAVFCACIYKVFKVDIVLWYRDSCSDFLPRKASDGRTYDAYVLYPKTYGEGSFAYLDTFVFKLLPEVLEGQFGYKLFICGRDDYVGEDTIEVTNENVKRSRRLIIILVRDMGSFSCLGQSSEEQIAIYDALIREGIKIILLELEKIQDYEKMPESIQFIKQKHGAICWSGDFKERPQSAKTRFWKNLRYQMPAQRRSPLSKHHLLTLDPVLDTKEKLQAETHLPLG

[2] = target: T2, fusion protein of the cytoplasmic domain of IL-1RI with GST (UniProt P14778); assay: pull-down; GST fusion proteins on affinity beads incubated with total homogenate from rat hippocampus (text: lysates from rat hippocampal neurons), extensively washed; immunoblot with GluN2B antibody; only the target purified
T2 sequence: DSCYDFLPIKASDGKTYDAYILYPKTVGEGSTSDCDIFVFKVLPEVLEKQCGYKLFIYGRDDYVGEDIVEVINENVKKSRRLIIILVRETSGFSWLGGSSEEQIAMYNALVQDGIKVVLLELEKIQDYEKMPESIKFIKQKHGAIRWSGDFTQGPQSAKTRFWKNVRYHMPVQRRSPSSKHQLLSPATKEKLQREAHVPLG

[3] = target: T1, interleukin-1 receptor type I (rat (endogenous in hippocampus)); assay: co-IP; IL-1RI immunoprecipitated from total lysates of primary hippocampal neurons treated or not with NMDA (50 uM, 10 min) or IL-1beta (0.05 ng/ml, 30 min); western blot for GluN2B
[4] = target: GluN2B subunit of the NMDA receptor (rat (endogenous in hippocampus)) (UniProt Q00960); assay: co-IP; protein homogenates (200 ug) from rat hippocampi immunoprecipitated with antibodies specific for IL-1RI, GluA1 or GluN2B; western blot of the immunocomplex
[5] = target: GluA1 subunit of AMPA receptors (rat (endogenous in hippocampus)) (UniProt P19490); assay: as above

GluN2B subunit of the NMDA receptor (from UniProt Q00960 27-1482)
binding [1]: binds | binding [2]: binds | binding [3]: binds

myeloid differentiation primary response protein 88 (from UniProt Q6Y1S1 1-296)
binding [4]: binds | binding [1]: binds | binding [5]: no binding

B1: IL-1R accessory protein (protein, UniProt Q63621 21-570)
chain: SERCDDWGLDTMRQIQVFEDEPARIKCPLFEHFLKYNYSTAHSSGLTLIWYWTRQDRDLEEPINFRLPENRISKEKDVLWFRPTLLNDTGNYTCMLRNTTYCSKVAFPLEVVQKDSCFNSPMRLPVHRLYIEQGIHNITCPNVDGYFPSSVKPSVTWYKGCTEIVNFHNVQPKGMNLSFFIPLVSNNGNYTCVVTYLENGRLFHLTRTMTVKVVGSPKDAVPPHIYSPNDRVVYEKEPGEELVIPCKVYFSFIMDSHNEIWWTIDGKKPDDVPVDITIIESVSYSSTEDETRTQILSIKKVTPEDLKRNYVCHARNAEGEAEQAAKVKQKVIPPRYTVELACGFGATVFLVVVLIVVYHVYWLEMVLFYRAHFGTDETILDGKEYDIYVSYARNAEEEEFVLLTLRGVLENEFGYKLCIFDRDSFPGGIVTDETLSFIQKSRRLLVVLSPNYVLQGTQALLELKAGLENMASRGNINVILVQYKAVKDLKVKELKRAKSVLTVIKWKGEKSKYPQGRFWKQLQVAMPVKKSPRWSSSDKQGLSYSSLKNV
binding [4]: binds | binding [1]: binds | binding [5]: no binding

B2: interleukin-1 receptor type I (receptor, UniProt Q02955 20-576)
chain: LETDKCTEYPNEVISFSSVNEIDIRSCPLTPNEMHGGTIIWYKNDSKTPISADKDSRIHQQNEHLWFVPAKMEDSGYYYCIMRNSTYCLKTKITMSVLENDPGLCYNTQASFIQRLHVAGDGSLVCPYLDFFKDENNELPKVQWYKNCKPLPLDDGNFFGFKNKLMVMNVAEEHRGNYTCRTSYTYQGKQYPVTRVITFITIDDSKRDRPVIMSPRNETMEADPGSTIQLICNVTGQFTDLVYWKWNGSEIEWDDPILAEDYQFLEHPSAKRKYTLITTLNVSEVKSQFYRYPFICFVKNTHILETAHVRLVYPVPDFKNYLIGGFAIFTATAVFCACIYKVFKVDIVLWYRDSCSDFLPRKASDGRTYDAYVLYPKTYGEGSFAYLDTFVFKLLPEVLEGQFGYKLFICGRDDYVGEDTIEVTNENVKRSRRLIIILVRDMGSFSCLGQSSEEQIAIYDALIREGIKIILLELEKIQDYEKMPESIQFIKQKHGAICWSGDFKERPQSAKTRFWKNLRYQMPAQRRSPLSKHHLLTLDPVLDTKEKLQAETHLPLG
binding [4]: binds | binding [5]: no binding
